Experimental findings from the RNAGym collection of RNA variant scans (doi:10.7554/elife.90254) are described below.

Read counts are not given, so values of variants with three or more changes are uncertain.

The chains are these.
B1: LINE1-full (parent)
chain: UACGUAGGUGGUUUUCCCCUGAUAGUGCUAAGGGGGCCUGGAAGUUUGGACUGGGCAGAGCUCAACACAGCGUGGCAAAGUGGCUGUGGCUAGACUGCCUCUCUGGAUUCCUCGUCACUCAGCAGGGCAUCUCUGAGAGAAAUGCC

In the series the parent is B1. Put plainly: self-cleavage, relative activity (ratio to wild type); higher = more cleavage; in vitro, sequencing; the parent is a self-cleaving ribozyme.
In the case of G11U U14A U46C U119A U130A A140U, the self-cleavage was determined as 0.8.

As for G10A A50G A78G, the self-cleavage is 1.1.

As to U12A U20C G53A C90U U109C, the self-cleavage is 0.08.

In the case of U12A A50G A69G, the self-cleavage is 1.67.

Regarding G10A A57U C113U, the self-cleavage was found to be 0.07.

Take G11A U39C C51U U87C: the self-cleavage was found to be 0.14.

For the variant G11A A65G A136U, the self-cleavage worked out at 0.04.

Regarding G11C U29C A94G A140G, the self-cleavage was 0.18.

Turning to G10A A69U A77G, the self-cleavage stood at 0.11.

Take U9G U102C A138G A141G: the self-cleavage was 0.

With G10A A22G A65U, the self-cleavage was 0.17.

As to G11A U45G U100C U119C, the self-cleavage was found to be 0.

Take U12A U46C U62C: the self-cleavage is 0.14.

As for U12A A50U C51A A67U, the self-cleavage is 0.17.

Turning to G11A G32C A121U U132C, the self-cleavage turned out to be 1.1.

In the case of U12A A42G A43U C76U G83A U96C, the self-cleavage turned out to be 0.18.

Consider G10A A67U A140U, for which the self-cleavage was found to be 0.23.

U12A U26G A94G: the self-cleavage was 0.28.

For the variant G10A A24U A107G, the self-cleavage came out at 0.68.

Turning to G10A U12C A57U U109C U143C, the self-cleavage was determined as 0.08.

For U9G U134A A141G, the self-cleavage amounted to 0.47.

Take U12A U14C U130G U143C: the self-cleavage was 1.5.

With U12A U46A A92G, the self-cleavage stood at 0.1.

As for G10A U45C U52A U62A G72A A107G C113A A142G, the self-cleavage came out at 0.05.

On to U12A A22G U112C A121U G126A U130C A140G, for which the self-cleavage was determined as 2.45.

Regarding G11C A43U U87A, the self-cleavage is 0.16.

Turning to U12C A42G U47C U62C A141G, the self-cleavage worked out at 0.

In the case of U12C A30U A124G, the self-cleavage worked out at 0.76.

For G10A A22G A30G A59G U91C, the self-cleavage was determined as 0.

As to G10A A141G A142G, the self-cleavage was found to be 1.24.

For the variant U12C A30U U52A U96A, the self-cleavage was determined as 0.18.

With U12A A24U U46C U47C A107G, the self-cleavage stood at 0.

Regarding G10A G36C U39C U47C U85C, the self-cleavage came out at 0.68.

Regarding G10A U14C U26C C113A, the self-cleavage is 0.96.

In the case of U12A A64U A121U, the self-cleavage turned out to be 0.49.

Consider U12A A30G U62C A77G C113U G127U, for which the self-cleavage is 0.26.

On to G10A U13C U112C A141G, for which the self-cleavage worked out at 1.4.

Take U12A U45G C71U U104C A141G: the self-cleavage amounted to 0.78.

With G11A U46C U47C C76U U100A U102A, the self-cleavage is 2.41.

On to G10A U52A A136G, for which the self-cleavage was 1.15.

Regarding U12A A64U U102C, the self-cleavage turned out to be 0.57.

On to G10A A22G U108C, for which the self-cleavage was found to be 1.97.

G10A U20G A67U A129U: the self-cleavage was found to be 0.18.

Regarding G11A U26A G32U G34A, the self-cleavage was determined as 1.55.

For G11A A64U A94G, the self-cleavage amounted to 0.17.

With U12C A42U A77G U91G, the self-cleavage amounted to 0.

As for U12C A30G A78G U132C, the self-cleavage is 1.25.

As to U12A A31G U81C, the self-cleavage came out at 1.02.

For U9G A69U U119A, the self-cleavage was found to be 0.

As for G10U A22G G48A A50U U115A A140G, the self-cleavage was 1.11.

As to G10A A57G U132C, the self-cleavage is 0.

Take U12A A107G A121U: the self-cleavage was 0.77.

G11A U96A U132C A141G: the self-cleavage was determined as 0.06.

As to U9G U73A A136U, the self-cleavage was 1.17.

For U12A U29A U96G U109C, the self-cleavage turned out to be 0.

With U12A A31G A142G, the self-cleavage is 0.63.

In the case of U12A U47C A78G, the self-cleavage was found to be 1.07.

As for U12C A22G U23C G27A G83C A124U, the self-cleavage was 0.

In the case of U12A U52A A140G, the self-cleavage amounted to 0.77.

In the case of G11A U12C U13C U23G A24G A69U, the self-cleavage came out at 0.26.

On to U12C A24U A67G U115C A138U, for which the self-cleavage came out at 1.31.

For the variant U9G A59G U134C A138G, the self-cleavage stood at 0.34.

Turning to G11U U45C C84A A124U, the self-cleavage turned out to be 0.06.

Regarding U12C A43G A69U U132A, the self-cleavage was determined as 0.21.

Consider G10A C19U A31G U119A A124U, for which the self-cleavage was found to be 1.47.

With G10A U13C A22G A24G A65G U87C, the self-cleavage is 0.

For the variant G11A A22G U62A, the self-cleavage stood at 0.04.

For G11A U29C A30G U39C, the self-cleavage is 0.94.

With G11C A42G A67C, the self-cleavage was determined as 0.26.

As to U9G U13A A31G A67U G75A U119C, the self-cleavage came out at 0.36.

Regarding G10A A30G A69U, the self-cleavage was determined as 0.05.

As for G11A U100C A124U, the self-cleavage was determined as 2.04.

G10A A24G G41A A57G: the self-cleavage worked out at 0.43.

For the variant U12A U20G U46C U100A U102C A129G, the self-cleavage was 1.67.

For the variant U9G U46C G48U A136U, the self-cleavage is 1.22.

U12A U13C U45G U62A A69G: the self-cleavage is 0.48.

U12A G27A A57U U132C: the self-cleavage worked out at 0.

As to U12A U102A A142G, the self-cleavage turned out to be 1.46.

For U9G A57G A65G C71U A92G U130C, the self-cleavage stood at 0.

On to U9G U85C A124U, for which the self-cleavage stood at 0.26.

On to U12A C61U A140G, for which the self-cleavage came out at 0.06.

With G11A U13C U29C A57G A138U, the self-cleavage worked out at 0.47.

Consider G11A U29C G35U U45C, for which the self-cleavage stood at 0.78.

In the case of U9G C61G G135A A140G, the self-cleavage was 0.29.
